Measurements taken from PubChem BioAssay AID485367 (National Center for Advancing Translational Sciences (NCATS), 2010).
Values joined by “and” are separate entries in the source; they are usually repeats but may differ in a detail not shown here. Identical values can stand only once. Screen size: about 330,000 compounds; about 560 (0.17%) were called active. The shares of active, inactive and inconclusive entries below differ from those in the screen. Calls come from the whole dose curve; as a rule, active = well fitted inhibition curve with a large enough effect; inconclusive = small, poorly fitted or top-dose-only effect, or effect the other way; inactive = flat fitted curve, though single readings scatter. Where the call is inconclusive, the potency comes from a doubtful curve fit.

target: ATP-dependent 6-phosphofructokinase (Trypanosoma brucei brucei) (UniProt O15648); test: qHTS Assay to Find Inhibitors of T. brucei phosphofructokinase; note: nearly all actives have a fitted effect of over 60% in size; conditions: T. brucei PFK, ADP-Glo luminescence; activity, negative = inhibition: at 57.5 µM (top of the series)
Chain of UniProt O15648 (O15648 whole entry, looked up): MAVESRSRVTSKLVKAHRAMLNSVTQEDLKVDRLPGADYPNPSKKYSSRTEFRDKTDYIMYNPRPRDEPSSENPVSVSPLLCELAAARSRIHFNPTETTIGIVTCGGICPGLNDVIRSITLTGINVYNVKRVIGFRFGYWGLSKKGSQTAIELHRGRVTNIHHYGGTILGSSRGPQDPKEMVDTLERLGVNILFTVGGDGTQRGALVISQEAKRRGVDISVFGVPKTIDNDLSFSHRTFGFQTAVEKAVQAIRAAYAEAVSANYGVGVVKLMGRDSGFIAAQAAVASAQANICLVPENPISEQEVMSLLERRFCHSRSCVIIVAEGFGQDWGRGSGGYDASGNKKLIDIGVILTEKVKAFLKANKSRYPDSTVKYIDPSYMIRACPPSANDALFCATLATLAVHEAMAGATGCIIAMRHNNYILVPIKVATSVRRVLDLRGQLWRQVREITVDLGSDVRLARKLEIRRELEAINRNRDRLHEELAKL
Source text: NIH Molecular Libraries Probe Production Network [MLPCN] NIH Chemical Genomics Center [NCGC] Grant: 1 R03 MH092153-01 PI Name: Malcolm Walkinshaw, University of Edinburgh NCGC Assay Overview: Various species of the protozoan family Trypanosomatidae are responsible for a range of serious human diseases in tropical and subtropical areas of the world. […] Many of the disorders caused by trypanosomatids are fatal if left untreated, but most currently used drugs are inefficient and toxic. […] Oxidative metabolism involving the mitochondrial tricarboxylic acid cycle and oxidative phosphorylation are repressed in these parasites, and recent RNA interference (RNAi) experiments have shown that even partial depletion of certain individual glycolytic enzymes can lead to the death of cultured parasites. One such glycolytic enzyme, phosphofructokinase (PFK), catalyzes the formation of fructose-1,6-bisphosphate (F1,6BP) and ADP from fructose-6-phosphate (F6P) and ATP, and in many metabolic circumstances makes an important contribution to the control of flux through the glycolytic pathway. As a specific glycolytic target, PFK is particularly attractive as it catalyzes the first irreversible step in glycolysis, and structural and kinetic studies have shown very substantial and essential differences from corresponding host enzymes, allowing for the discovery of parasite-selective inhibitors. The goal of this screen is to find small-molecule inhibitors of T. brucei PFK using a biochemical assay that measures PFK activity as a function of ADP production. A luminescence-based assay for T. brucei PFK activity has been developed which uses luciferase to detect production of ADP. Traditional luciferase-based nucleotide detection reagents rely on ATP production as a direct substrate for the luciferase reaction; however, PFK catalyzes the transfer of a phosphate from ATP to F6P, resulting in the net depletion of ATP. To directly measure the ADP product of the PFK reaction, we used the ADP-Glo detection kit (Promega), which utilizes two separate reactions to 1) deplete all remaining uncatalyzed ATP and 2) convert all remaining ADP to ATP, which is then detected through a traditional luciferase-coupled reaction. Compounds were screened as a concentration-titration series that ranged from 57 uM to 0.7 nM.
NCGC Assay Protocol Summary: NCGC Assay Protocol Summary: Substrate buffer was dispensed into white, solid 1536-well plates at 3uL/well in 0.1M triethanolamine (TEA) buffer, pH 8.0, containing final concentrations of 5 mM MgCl2, 0.01% Tween20, 0.5 mM fructose-6-phosphate (F6P) and 0.1mM ATP. Then, 23 nL of compounds or DMSO were delivered to each well using a pin tool. One uL T. brucei PFK (0.1M TEA, 0.01% Tween20, 0.1% bovine serum albumin (BSA) and 1.25nM PFK, final concentrations) was then dispensed, and plates were incubated at room temperature for 45 min. The luminescent detection reagent, ADP-Glo (Promega), was then added in two steps: the first reagent, ADP-Glo (which converts remaining uncatalyzed ATP), was added at 2.5uL/well and incubated for ten minutes at room temperature, and the second component, Kinase Detection reagent (which converts ADP to ATP as a substrate for luciferase-based luminescence), was added immediately after at 5uL/well, followed by one final ten minute room temperature incubation. The plates were measured on a ViewLux plate reader for luminescent signal using a clear filter with a one second exposure. The %Activity was determined from the corrected luminescence values. As no specific T. brucei PFK inhibitors have been identified in the literature, 1x (1.25nM) and 0x PFK enzyme controls (untreated) were included to normalize %Activity of identified inhibitors; 0x enzyme values corresponded to 100%Activity (full inhibition), while 1x PFK enzyme values were used to normalize 0%Activity (no inhibition). Concentration-response curves were fitted to the signals arising from the resulting luminescence. […]
Potency is the fitted concentration of half-maximal effect; tags give direction and shape of the fitted curve.

Compound | Potency | activity, negative = inhibition
COc1ccc(OC)c(-c2csc(NC(=O)COC(=O)c3ccc(NC(=O)CC#N)cc3)n2)c1 | active: 21.3 µM | –
COc1ccc(S(=O)(=O)N2CCN(CC(=O)NCCc3cccs3)CC2)cc1 | inconclusive: 7.57 µM [falling, single point] | –
O=C(CCCNS(=O)(=O)c1cccs1)N1CCN(c2cccc(Cl)c2)CC1 | inconclusive: 23.9 µM [falling, single point] | –
CC(=O)N(C)C1(c2nnnn2CCOC(=O)Nc2ccc(Cl)cc2)CCCCC1 | inconclusive: 37.9 µM [falling, single point] | –
CCOC(=O)C(NC(=O)CC)(Nc1ccc(S(=O)(=O)Nc2onc(C)c2C)cc1)C(F)(F)F (configuration not stated) | – | inactive: 15.9%
COc1ccc(S(=O)(=O)Nc2cc([N+](=O)[O-])ccc2OC)cc1 | – | inactive: 2.6%
COc1ccc(CCNC(=O)C(=O)NCc2ccccn2)cc1 | inconclusive: 8.49 µM [falling, single point] | –
COCCn1c(SCCN2CCOCC2)nc2c1c(=O)[nH]c(=O)n2C | inconclusive: 23.9 µM [falling, partial curve] | –
CNCCOc1ccc(Cl)c(Cl)c1 | inconclusive: 21.3 µM [falling, partial curve] | –
COc1ccc(NS(=O)(=O)c2ccc3nc(COc4ccc(C#N)cc4)[nH]c3c2)cc1 | inconclusive: 30.1 µM [falling, single point] | –
O=Cc1cccc(OC(=O)/C=C/c2ccco2)c1 | active: 23.9 µM | –
CSc1nsc(SC)c1C(=O)N1CCN(S(=O)(=O)c2ccc(C)cc2)C1C (configuration not stated) | – | inactive: -1.7%
c1ccc2oc(NC3=NCN(CC4CCCO4)CN3)nc2c1 (configuration not stated) | inconclusive: 1.35 µM [activator, full curve, poor fit] | –
O=C(CCc1ccc(O)c(O)c1)N/N=C/c1cc2c(cc1[N+](=O)[O-])OCO2 | inconclusive: 8.49 µM [falling, full curve] | –
CCn1cc(C(=O)NCc2ccco2)c(=O)c2cc(F)c(N3CCN(C(=O)c4ccco4)CC3)cc21 | active: 9.53 µM | –
CCNc1nc(NCC)n2c(SCC(=O)Nc3ccc(F)cc3)nnc2n1 | inconclusive: 13.5 µM [falling, partial curve] | –
CCc1nnc(NC(=O)CSc2nc(C)c3c(c2C#N)CCCC3)s1 | inconclusive: 21.3 µM [activator, partial curve] | –
CCCCN(C)CCn1c(=S)[nH]c2cc(OCC)c(OCC)cc2c1=O | – | inactive: 0.0028%
COc1ccc(NC(=O)CCCc2ccccc2)c(OC)c1 | – | inactive: 0.0482%
CC1Cc2ccccc2N1C(=O)CN1C(=O)COc2ccccc21 (configuration not stated) | – | inactive: 1.08%
Cc1ccccc1Nc1nc2nonc2nc1N1CCOCC1 | inconclusive: 8.49 µM [activator, single point] | –
O=C(COC(=O)c1ccc(F)cc1)NC1CC1 | inconclusive: 23.9 µM [falling, single point] | –
COc1cccc(Nc2n[nH]c(=S)s2)c1 | inconclusive: 23.9 µM [falling, single point] | –
Cc1nc2ccc(S(=O)(=O)Nc3ccc(-c4nc5cccnc5s4)cc3)cc2s1 | – | inactive: -1.11%

Compound | Potency | activity, negative = inhibition
COc1ccccc1NS(=O)(=O)c1cc(NC(=O)c2cc[n+]([O-])cc2)ccc1N1CCCC1 | – | inactive: -17%
Cc1nc2c(-c3ccc(F)cc3)c(C)nn2c(C)c1CCC(=O)N1CCN(c2ccc(F)cc2)CC1 | – | inactive: -18.9%
CC1(C)CC(=O)C=C(Nc2ccc([N+](=O)[O-])cc2)C1 | inconclusive: 0.849 µM [falling, single point] | –
O=C(Nc1ccc(Cl)c(S(=O)(=O)N2CCOCC2)c1)c1cccs1 | inconclusive: 8.49 µM [activator, single point] | –
COc1cc(OC)c(/C=N/n2c(C3CCCCC3)n[nH]c2=S)c(OC)c1 | inconclusive: 9.53 µM [falling, partial curve] | –
Nc1nc(=S)c2ncn(C3CCCC3)c2[nH]1 | inconclusive: 26.9 µM [falling, partial curve] | –
COc1ccc(/C=C/C(=O)N(C)C2CCS(=O)(=O)C2)cc1OC (configuration not stated) | inconclusive: 0.757 µM [activator, single point] | –
O=C(/C=C/c1ccc(O)c(O)c1)O[C@H](Cc1ccc(O)c(O)c1)C(=O)O | active: 16.9 µM | –
O=C(O)CCC(=O)N1CCN(c2cccc(Cl)c2)CC1 | inconclusive: 30.1 µM [falling, single point] | –
COc1cc(CNc2ccc(O)cc2)cc(Br)c1OCc1ccccc1F | – | inactive: 0%
CC(C)C(=O)Nc1ccc(C(=O)Nc2nnc(C(C)(C)C)s2)cc1 | inconclusive: 33.8 µM [falling, single point] | –
CCc1nn2c(N)c(/C=C3\C=Nc4ccccc43)c(=O)nc2s1 | inconclusive: 26.9 µM [activator, partial curve] and inconclusive: 30.1 µM [activator, partial curve] | –
CCOCc1nnc(NC(=O)CSc2ccccc2)s1 | – | inactive: -12.5%
Cc1ccc(CC(=O)Nc2ccc(S(=O)(=O)N3CCOCC3)cc2)cc1C | inconclusive: 23.9 µM [falling, partial curve] | –
N/C(=N\OCC(=O)Nc1ccccc1)c1nonc1N | inconclusive: 26.9 µM [falling, single point] | –
O=C(/C=C/c1ccco1)N(c1ccccn1)c1ccccn1 | inconclusive: 26.9 µM [falling, single point] | –
CCN(CC)CCn1c(=N)n(CCOc2ccccc2)c2ccccc21 | inconclusive: 26.9 µM [falling, single point] | –
O=C(c1cc2ncc(Br)cn2n1)N1CCOCC1 | inconclusive: 23.9 µM [falling, single point] | –
O=C(NCc1ccc(Cl)cc1)C1CCN(S(=O)(=O)c2cccs2)CC1 | inconclusive: 26.9 µM [falling, single point] | –
Cc1ccc(C(=O)Nc2ccc(O)cc2C(=O)O)cc1C | inconclusive: 37.9 µM [activator, single point] | –
Cc1c(Br)c([N+](=O)[O-])nn1CC(=O)NCc1ccco1 | inconclusive: 21.3 µM [falling, single point] | –
Cc1ccc(S(=O)(=O)Cc2ccc(C(=O)NCc3ccc4c(c3)OCO4)o2)cc1 | inconclusive: 30.1 µM [falling, single point] | –
O=C(COC(=O)CSc1ccc(F)cc1)NC1CCCCCC1 | – | inactive: 1.42%
CCCCn1c(NC(=O)c2ccccc2)c(C#N)c2nc3ccccc3nc21 | – | inactive: 0%

Compound | Potency | activity, negative = inhibition
O=C(COC(=O)c1ccccc1)c1ccc(S(=O)(=O)N2CCCCC2)cc1 | inconclusive: 8.49 µM [falling, single point] | –
O=C1NC(=S)SC1=C1CCCC1 | inconclusive: 37.9 µM [falling, single point] | –
Cc1ccc(NC(=O)c2ccc(Cn3cc([N+](=O)[O-])cn3)cc2)c(C)c1 | inconclusive: 23.9 µM [falling, single point] | –
COc1ccc(SC[C@H](Cc2ccccc2)N2CC[C@@H](C(C)(C)C)CCC2=O)cc1 | inconclusive: 26.9 µM [falling, single point] | –
O=C(Cn1cnc2ccccc21)Nc1cccc([N+](=O)[O-])c1 | – | inactive: -16.7%
O=S(=O)(Nc1ccc(Cc2ccncc2)cc1)c1cccs1 | – | inactive: 3.71%
CCN1/C(=C/c2ccc3cc(C)ccc3[n+]2CC)Sc2cc(C)ccc21 | – | inactive: -1.24%
O=C(CSc1nc(-c2ccc(F)cc2)cs1)NC(=O)NCc1ccco1 | inconclusive: 33.8 µM [falling, single point] | –
Cc1cc(C)c(C(=O)COc2cccnc2[N+](=O)[O-])cc1C | inconclusive: 33.8 µM [falling, single point] | –
Oc1ccc(N2CCN(c3ncnc4sc(-c5ccccc5)cc34)CC2)cc1 | inconclusive: 10.7 µM [falling, partial curve] | –
O=C(N/N=C\c1cc(Br)cs1)C1COc2ccccc2O1 (configuration not stated) | inconclusive: 23.9 µM [falling, single point] | –
Cc1cc(C)nc(NS(=O)(=O)c2ccc(NC(=O)c3cc(=O)c4ccccc4o3)cc2)n1 | inconclusive: 16.9 µM [activator, partial curve] | –
CCOCCc1nnc(NC(=O)C2CCN(C(=O)c3ccco3)CC2)s1 | – | inactive: -1.23%
O=C(Nc1nc2ccsc2c(=O)s1)c1ccc(F)cc1Cl | inconclusive: 26.9 µM [falling, single point] | –
COC(=O)C1CCN(C(=O)COC(=O)c2cc(-c3ccccc3)nc3ccc(OC)cc23)CC1 | inconclusive: 16.9 µM [falling, partial curve] | –
Cc1cc2c(ccc3[nH]onc32)n1 | inconclusive: 30.1 µM [falling, single point] | –
O=C1c2ccccc2C(=O)N1/N=C/c1ccc(O)c(O)c1O | active: 19 µM | –
CCCNC(=O)c1ccc2nc(-c3ccccc3)c(-c3ccccc3)nc2c1 | – | inactive: -17.3%
CC(=O)[C@H]1[C@H]([C@H](O)[C@H](O)CO)O[C@](O)(C(=O)O)C[C@@H]1O | active: 1.69 µM | –
CCOC(=O)c1sc(NC(=O)C2CCCO2)c(C(=O)OCC)c1C (configuration not stated) | inconclusive: 37.9 µM [falling, single point] | –
O=C(c1ccco1)N1CCN(C(=O)c2cc(-c3ccccn3)nc3ccccc23)CC1 | – | inactive: 2.31%
O=C1S/C(=C\C=C\c2ccco2)C(=O)N1c1ccc(O)cc1 | inconclusive: 30.1 µM [falling, single point] | –
CC1(C)c2ccccc2N2CC(=O)N[C@@]21/C=C/C=C/c1ccccc1 | – | inactive: -2.92%
Cc1ccn2c(=O)nc(SCC(=O)NCc3ccco3)nc2c1 | inconclusive: 23.9 µM [falling, single point] | –
